Source: article PMC6212790
This is one part of the list. At the low end of the ranking the order means little.

Molecular target: T1, GST-Rok-C97-191 (UniProt O34857)
T1 sequence: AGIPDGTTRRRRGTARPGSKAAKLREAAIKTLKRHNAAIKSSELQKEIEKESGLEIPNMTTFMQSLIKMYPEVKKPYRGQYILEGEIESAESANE
Test: protein binding microarray;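 also: rank score from −0.5 (least bound) to 0.5 (best bound)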
Settings: Rok is a gene silencer of Bacillus subtilis; high values mean tight binding; most listed sequences are background and not binding sites; double strand, one strand shown

Sequence	binding signal
CCGGCGAG	-0.23 E-score
CTGGGCAC	-0.294 E-score
CAATATAC	0.243 E-score
ACGGCTAA	-0.0504 E-score
AGCAACCT	0.019 E-score
CTTTTAGC	0.14 E-score
TAGGAACA	0.214 E-score
TAGAAAAA	0.297 E-score
CCCGTGAC	-0.222 E-score
AACACGCT	0.0618 E-score
AAGAGAGC	-0.136 E-score
GGCATAAA	-0.0586 E-score
TACGCCTA	0.0237 E-score
ACTGGTGC	-0.0059 E-score
ATCACTCC	0.0289 E-score
AGTGCCCA	-0.181 E-score
AGACGGAG	-0.289 E-score
ATGGAATG	0.149 E-score
TAATGGAA	0.0153 E-score
AAAACCCT	-0.0859 E-score
CTATCGCC	-0.0268 E-score
AGTTAGTG	0.0734 E-score
AGTTAGCG	0.0457 E-score
CCCTCACA	-0.104 E-score
AAACTATG	0.229 E-score

Sequence	binding signal
ATCGTATA	0.223 E-score
GGGAAGCA	-0.176 E-score
GGGACACC	-0.159 E-score
CTTGTAGA	0.123 E-score
TACGGACA	0.0643 E-score
AATTTCTG	0.128 E-score
CACTTCAA	-0.0752 E-score
AAATGCCC	0.00515 E-score
CGTAAGCC	-0.222 E-score
CGCAGAAA	0.0836 E-score
AGTTGGGC	-0.077 E-score
AATTGCGT	0.307 E-score
AGAACATC	0.04 E-score
CAATTCTA	0.287 E-score
CCCCACGA	-0.186 E-score
AAAAGTCT	0.0913 E-score
AGCACGTG	-0.0267 E-score
CGGGCTTA	-0.148 E-score
AACGTTAT	0.182 E-score
GAAGTCGA	-0.0325 E-score
ATTCGTCG	0.172 E-score
CTATATGC	0.209 E-score
ATACACCA	0.144 E-score
AAAACTTA	0.256 E-score
CGACAAAG	-0.243 E-score

Sequence	binding signal
CATGCAAC	0.0519 E-score
CACGTGGC	-0.216 E-score
CGGCGATC	-0.13 E-score
AGACATCC	-0.249 E-score
GTATGCAA	-0.0479 E-score
ACACCAAC	0.0171 E-score
ACAGCCTC	-0.165 E-score
ACCGAGGC	-0.249 E-score
ATACGCGC	0.103 E-score
AGCAAAAT	0.25 E-score
GGATTCGA	-0.129 E-score
ATTTCCCG	0.119 E-score
CCATGTCC	-0.0296 E-score
ACCCGACC	-0.143 E-score
ATCCGAAC	-0.127 E-score
CAACCATC	-0.0304 E-score
CGAAAGCG	-0.0246 E-score
CGCTTTTA	0.0322 E-score
CCGAACTC	0.0371 E-score
CCGTGTGC	-0.184 E-score
ACAGGACC	0.0462 E-score
GAGTCGTA	0.0563 E-score
AATATCAT	0.135 E-score
CGAGGGCA	-0.364 E-score
ACTCCTTA	0.00627 E-score

Sequence	binding signal
CAGTAACG	0.106 E-score
CCGAACAA	-0.187 E-score
CCCTTCGG	-0.266 E-score
GCCTACTA	0.229 E-score
GATGGCGC	-0.182 E-score
ATCGCCAC	-0.0423 E-score
TATGTTAA	0.23 E-score
CAGTGTTC	-0.0565 E-score
ACACGGAT	0.0931 E-score
ACGGCCTG	-0.0541 E-score
AACAGACT	-0.134 E-score
AGGTAGAT	0.36 E-score
CAGCCGAC	-0.267 E-score
AGTTCCCA	-0.0242 E-score
ATTATATC	0.384 E-score
AACTTCGT	-0.0253 E-score
GCATTCCC	-0.105 E-score
TAACGCAA	0.0874 E-score
GCTATTCA	0.00412 E-score
ATAAAGGC	0.052 E-score
GTATCTGA	0.0498 E-score
CCCGTTGC	-0.0267 E-score
GATGTTCC	-0.0401 E-score
GTGCTAGA	0.197 E-score
ACCGATGG	-0.203 E-score

Sequence	binding signal
TAGTACTA	0.402 E-score
AATCAAAA	0.118 E-score
AAGCTCGG	-0.161 E-score
GAGCCTCC	-0.354 E-score
ACTGCTAC	0.128 E-score
ATTATAAA	0.127 E-score
CTCTGATC	-0.0195 E-score
ATTAACCG	-0.0569 E-score
CAAGTTCG	-0.117 E-score
CACTCCCG	0.0476 E-score
CCTCGAGA	-0.0905 E-score
CAGCATCG	-0.0978 E-score
CGCACTTC	-0.175 E-score
GGTACAAA	0.216 E-score
CCGGGTTC	-0.277 E-score
GATCTCGC	0.0478 E-score
GTGAGTAA	0.204 E-score
ACTGACAC	-0.0827 E-score
AGTCCAAT	-0.0629 E-score
AGGCGACT	-0.0944 E-score
AGATCCGC	-0.0808 E-score
CGATTCAG	-0.0158 E-score
ACCCAGGT	-0.124 E-score
ATATCTGA	-0.00207 E-score
AGGAATTA	0.141 E-score

Sequence	binding signal
ATACGACG	0.172 E-score
ACCTCAGG	-0.0604 E-score
ATCTACTG	0.423 E-score
CCTAGGTC	-0.196 E-score
ATCGACCA	-0.0614 E-score
CGCCGCTA	0.141 E-score
ACCATCCT	-0.0227 E-score
ATATGCCA	-0.149 E-score
CGAGCGCA	-0.109 E-score
ATGAAAAG	0.0153 E-score
CGATGCTA	0.0302 E-score
AAAATGTT	0.122 E-score
CATCAAAC	-0.0913 E-score
AGCACGAA	0.0692 E-score
CCTCGATA	-0.104 E-score
AGCCGACC	-0.0312 E-score
AGACACTC	-0.137 E-score
ATTATTAA	0.199 E-score
ATAGAGCG	0.0195 E-score
AGGATCCC	-0.0748 E-score
ACAGTCTG	-0.241 E-score
GCCATACC	-0.158 E-score
TACACCCA	0.145 E-score
TGAATCAA	-0.285 E-score
GGGTCTAA	-0.233 E-score

Sequence	binding signal
CACGTAGA	-0.0653 E-score
AGTGGGCG	-0.0379 E-score
AATTTGAC	0.137 E-score
TTTCAAAA	-0.125 E-score
ATCGTGAG	-0.138 E-score
ATATATCC	0.268 E-score
CAATATAG	0.199 E-score
GCTACTCA	0.0267 E-score
CGAAAGCA	-0.187 E-score
AGCAGCGG	-0.239 E-score
TAGTTGCA	0.241 E-score
ATAAACAG	0.119 E-score
CCTTACTC	-0.147 E-score
CTGACACA	-0.0388 E-score
ACGCTTAA	0.056 E-score
CAGCCGCG	-0.288 E-score
GTTCCCGA	-0.0667 E-score
GGTCCACA	-0.113 E-score
AAGGGTCC	-0.105 E-score
ACTAGTGA	0.279 E-score
GATAGTTA	0.373 E-score
AACCGTAA	0.0748 E-score
